Measurements published in the BET-seq Pho4 binding data (Le et al. 2018).
Some of the results follow. Values were computed here from the reads of four pooled replicates and scatter widely.

What follows are sequences tested against T1, Pho4 (S. cerevisiae) (UniProt P07270) (assay: relative binding free energy (BET-seq); higher = weaker binding). Settings: reference: library average.
T1 sequence: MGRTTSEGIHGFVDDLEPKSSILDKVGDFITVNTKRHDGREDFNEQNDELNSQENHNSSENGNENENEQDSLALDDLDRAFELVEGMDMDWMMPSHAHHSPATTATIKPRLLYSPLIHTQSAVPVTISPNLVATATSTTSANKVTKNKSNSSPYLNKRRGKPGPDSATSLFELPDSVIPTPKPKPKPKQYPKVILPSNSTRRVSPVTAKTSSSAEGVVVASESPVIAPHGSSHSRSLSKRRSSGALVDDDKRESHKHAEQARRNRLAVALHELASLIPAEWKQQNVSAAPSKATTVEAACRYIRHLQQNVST
With AGCATCACGTGGGGTA the “relative binding free energy” value was -0.03 kcal/mol.
TCAAGCACGTGTATGT was tested, and the “relative binding free energy” value was -0.11 kcal/mol.
With TATAGCACGTGTGCTG the “relative binding free energy” value was -0.17 kcal/mol.
TGGCCCACGTGCGAGG was tested, and the “relative binding free energy” value was 0.02 kcal/mol.
GAGTTCACGTGAGAGA was tested, and the “relative binding free energy” value was 0.57 kcal/mol.
For TGCTGCACGTGGATGG, the “relative binding free energy” value was 0.03 kcal/mol.
CGTTCCACGTGGGGTA was tested, and the “relative binding free energy” value was -0.07 kcal/mol.
TTGCTCACGTGTTTTT was tested, and the “relative binding free energy” value was 0.14 kcal/mol.
With CGTTGCACGTGGGTTA the “relative binding free energy” value was -0.24 kcal/mol.
In the case of CTGTGCACGTGTGTGA, the “relative binding free energy” value is reported as -0.06 kcal/mol.
GTGGACACGTGTCGGT was tested, and the “relative binding free energy” value was 0.08 kcal/mol.
In the case of TGTGTCACGTGAATAT, the “relative binding free energy” value is reported as 0.26 kcal/mol.
GGGGCCACGTGTTTGA was tested, and the “relative binding free energy” value was -0.01 kcal/mol.
GTGTACACGTGTGTCA was tested, and the “relative binding free energy” value was 0.16 kcal/mol.
With TGACGCACGTGATTTT the “relative binding free energy” value was 0.15 kcal/mol.
ATGTTCACGTGGCCGT was tested, and the “relative binding free energy” value was 0 kcal/mol.
With TGGCTCACGTGCTTTT the “relative binding free energy” value was 0.17 kcal/mol.
For CATAACACGTGGTCGG, the “relative binding free energy” value was 0.08 kcal/mol.
With GAGGGCACGTGGCTGA the “relative binding free energy” value was -0.08 kcal/mol.
With GTTCGCACGTGAGGAG the “relative binding free energy” value was 0.18 kcal/mol.
In the case of AATTTCACGTGTACGG, the “relative binding free energy” value is reported as 0.31 kcal/mol.
GTAGTCACGTGCTGGG was tested, and the “relative binding free energy” value was 0.07 kcal/mol.
With GGTTGCACGTGACATT the “relative binding free energy” value was 0.28 kcal/mol.
With GGGGTCACGTGACGTA the “relative binding free energy” value was 0.32 kcal/mol.
TAATACACGTGGTGGT was tested, and the “relative binding free energy” value was -0.13 kcal/mol.
GGTCTCACGTGAGCGT was tested, and the “relative binding free energy” value was 0.24 kcal/mol.
With GGATTCACGTGAGTTG the “relative binding free energy” value was 0.33 kcal/mol.
For AGATTCACGTGGGGCT, the “relative binding free energy” value was 0.24 kcal/mol.
With AAGTACACGTGTCGGG the “relative binding free energy” value was 0.21 kcal/mol.
With GACGGCACGTGGTGCG the “relative binding free energy” value was -0.1 kcal/mol.
In the case of TCTGGCACGTGGATAA, the “relative binding free energy” value is reported as 0.04 kcal/mol.
With ATCGTCACGTGAGGTT the “relative binding free energy” value was 0.28 kcal/mol.
With GGGCGCACGTGTTTTT the “relative binding free energy” value was 0.06 kcal/mol.
TTTGGCACGTGACTGG was tested, and the “relative binding free energy” value was 0.05 kcal/mol.
For AGTTTCACGTGCGGCA, the “relative binding free energy” value was 0.19 kcal/mol.
In the case of GAGCGCACGTGGGGGA, the “relative binding free energy” value is reported as -0.23 kcal/mol.
For CGTAGCACGTGTAGGC, the “relative binding free energy” value was 0.03 kcal/mol.
ATGGTCACGTGTACTA was tested, and the “relative binding free energy” value was 0.25 kcal/mol.
In the case of GGGATCACGTGGCGTA, the “relative binding free energy” value is reported as -0.04 kcal/mol.
For CCGGTCACGTGGATGG, the “relative binding free energy” value was 0.25 kcal/mol.
GGATGCACGTGTCGAG was tested, and the “relative binding free energy” value was 0.03 kcal/mol.
AGAGTCACGTGGGGTG was tested, and the “relative binding free energy” value was -0.01 kcal/mol.
In the case of GATTTCACGTGGTGAT, the “relative binding free energy” value is reported as 0.4 kcal/mol.
For ATTGACACGTGGGGAT, the “relative binding free energy” value was -0.17 kcal/mol.
In the case of GGGACCACGTGGGTTA, the “relative binding free energy” value is reported as -0.12 kcal/mol.
With TCTTTCACGTGGCATG the “relative binding free energy” value was 0.22 kcal/mol.
With GGGTGCACGTGCGATG the “relative binding free energy” value was 0.07 kcal/mol.
For GGTGTCACGTGACGAG, the “relative binding free energy” value was 0.15 kcal/mol.
TTTGTCACGTGTCGAG was tested, and the “relative binding free energy” value was 0.2 kcal/mol.
For GAGGGCACGTGTGTCA, the “relative binding free energy” value was -0.05 kcal/mol.
With TATGCCACGTGATTGT the “relative binding free energy” value was -0.02 kcal/mol.
In the case of AAGGTCACGTGCGGGG, the “relative binding free energy” value is reported as 0 kcal/mol.
With CAGGGCACGTGAGGCG the “relative binding free energy” value was 0.03 kcal/mol.
In the case of TGTGTCACGTGGCTGC, the “relative binding free energy” value is reported as 0.01 kcal/mol.
GGCCTCACGTGGGGTG was tested, and the “relative binding free energy” value was -0.07 kcal/mol.
For ACTATCACGTGTTTGA, the “relative binding free energy” value was 0.15 kcal/mol.
With CAGGGCACGTGGATAG the “relative binding free energy” value was -0.11 kcal/mol.
With AGTGACACGTGCGTTA the “relative binding free energy” value was -0.1 kcal/mol.
